Assay results taken from PubChem BioAssay (Tox21).
Several values for one entry are separate records, joined by “and”; a condition that tells them apart may be missing. Equal values may be shown once. Inconclusive means that the source gave no clear call. Such entries were picked first, then a sample of the others. For part of these data: A potency beside an inconclusive call is a rough fit, not a confirmed value. Activity calls are given as the source filed them. Unless noted, calls follow the shape of the dose curve; as a rule, active = well fitted curve in the direction sought with a large enough effect in the repeat runs; inconclusive = weak or mixed curves; inactive = no such curve, though single readings can be large; an effect the other way counts as inactive or inconclusive.

Experiments:
[1] = qHTS assay to identify small molecule agonists of the constitutive androstane receptor (CAR) signaling pathway - cell viability counter screen (AID 1224836); also: nearly all actives have a fitted effect of over 45% in size; also: potency is read from the fitted curve at half-maximal effect
Summary of the method: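 23 h treatment, 37 C, 5% CO2. Cell line: HepG2 stably expressing hCAR with a CYP2B6-2.2kb construct. Co-treatment: PK11195, 0.75 uM final. Read-out: CellTiter-Fluor fluorescence intensity.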

[2] = qHTS assay to identify small molecule antagonists of the constitutive androstane receptor (CAR) signaling pathway - cell viability counter screen (AID 1224837); also: nearly all actives have a fitted effect of over 45% in size; also: potency is read from the fitted curve at half-maximal effect
Summary of the method: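 In quantitative HTS format, compounds at 15 concentrations were applied to HepG2 cells double-transfected with hCAR and CYP2B6-2.2kb under 50 nM CITCO stimulation; live-cell protease activity was read after 23 hr via CellTiter-Fluor.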

[3] = biological target: Nuclear receptor subfamily 1 group I member 3 (Homo sapiens) (UniProt Q14994); experiment: qHTS assay to identify small molecule antagonists of the constitutive androstane receptor (CAR) signaling pathway (AID 1224838); also: potency is read from the fitted curve at half-maximal effect; nearly all actives have a fitted effect of over 40% in size
UniProt Q14994, sequence (Q14994 whole entry, looked up): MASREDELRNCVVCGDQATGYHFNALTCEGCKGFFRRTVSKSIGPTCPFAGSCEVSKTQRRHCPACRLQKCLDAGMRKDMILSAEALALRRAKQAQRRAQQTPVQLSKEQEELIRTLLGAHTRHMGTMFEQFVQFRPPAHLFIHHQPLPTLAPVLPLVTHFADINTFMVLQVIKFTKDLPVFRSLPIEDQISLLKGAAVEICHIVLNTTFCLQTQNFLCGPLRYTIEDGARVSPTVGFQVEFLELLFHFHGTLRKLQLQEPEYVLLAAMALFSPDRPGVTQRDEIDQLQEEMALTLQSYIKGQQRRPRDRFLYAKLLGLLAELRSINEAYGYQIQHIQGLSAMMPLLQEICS
Summary of the method: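 CITCO-stimulated (50 nM final) HepG2 cells stably transfected with hCAR and CYP2B6-2.2kb luciferase were exposed to compounds at 15 concentrations for 24 h at 37 C/5% CO2. A luciferase reagent was added and luminescence recorded after 30 min.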

[4] = biological target: Nuclear receptor subfamily 1 group I member 3 (Homo sapiens) (UniProt Q14994); experiment: qHTS assay to identify small molecule agonists of the constitutive androstane receptor (CAR) signaling pathway (AID 1224839); also: nearly all actives have a fitted effect of over 15% in size; also: potency is read from the fitted curve at half-maximal effect;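 as to activation: HepG2 cells stably carrying human CAR and a CYP2B6 luciferase reporter; % is scaled to controls: 0 for no effect and ±100 for the full control effect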
Summary of the method: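 Compounds tested at 15 concentrations on HepG2 cells stably harbouring hCAR and CYP2B6-2.2kb reporter constructs, co-treated with PK11195 (0.75 uM final), 24 h at 37 C; luminescent reporter signal quantified.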

[5] = biological target: Thyrotropin receptor (Homo sapiens) (UniProt P16473); experiment: qHTS assay to identify small molecule agonists of the thyroid stimulating hormone receptor (TSHR) signaling pathway (AID 1224843; calls by dose curve; also: % is scaled to controls: 0 for no effect and ±100 for the full control effect; nearly all actives have a fitted effect of over 45% in size); conditions: TSHR-HEK293 cells, cAMP HTRF, agonist mode, 30 min; activation: at 92.4 µM (top of the series) unless noted
UniProt P16473, sequence (P16473 whole entry, looked up): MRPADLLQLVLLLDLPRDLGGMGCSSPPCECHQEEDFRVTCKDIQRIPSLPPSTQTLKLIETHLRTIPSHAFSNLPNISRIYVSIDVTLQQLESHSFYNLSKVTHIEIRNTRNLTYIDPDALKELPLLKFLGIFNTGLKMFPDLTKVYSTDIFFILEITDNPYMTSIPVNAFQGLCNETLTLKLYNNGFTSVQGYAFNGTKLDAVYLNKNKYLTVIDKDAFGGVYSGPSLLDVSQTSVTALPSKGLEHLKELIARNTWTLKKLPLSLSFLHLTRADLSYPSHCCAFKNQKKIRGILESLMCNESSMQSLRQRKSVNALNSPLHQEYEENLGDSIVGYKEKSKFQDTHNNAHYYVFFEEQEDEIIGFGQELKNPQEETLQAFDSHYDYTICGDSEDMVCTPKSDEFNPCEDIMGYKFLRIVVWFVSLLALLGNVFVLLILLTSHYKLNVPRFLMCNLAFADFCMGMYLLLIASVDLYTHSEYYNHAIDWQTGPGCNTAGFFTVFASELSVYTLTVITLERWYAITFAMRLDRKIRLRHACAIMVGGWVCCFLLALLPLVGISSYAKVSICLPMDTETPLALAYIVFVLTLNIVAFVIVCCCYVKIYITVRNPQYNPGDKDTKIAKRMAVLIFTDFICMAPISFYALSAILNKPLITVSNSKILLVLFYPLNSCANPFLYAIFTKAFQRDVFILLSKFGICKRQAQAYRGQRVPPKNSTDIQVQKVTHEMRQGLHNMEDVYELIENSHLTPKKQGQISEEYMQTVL
Summary of the method: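 HEK293/TSHR, 800 cells/well; cpd 30 min RT; add cAMP-d2 + anti-cAMP-cryptate, 1 h RT; fluorescence read on plate reader. 15-pt titration, n=3.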

[6] = qHTS assay to identify small molecule agonists of the hypoxia (HIF-1) signaling pathway - cell viability counter screen (AID 1224844; calls by dose curve; also: nearly all actives have a fitted effect of over 50% in size; also: potency is read from the fitted curve at half-maximal effect)
Summary of the method: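 Same wells as the HIF-1 reporter screen; ME-180 cells carrying HRE-bla, 17 hr treatment at 37C; CellTiter-Glo luminescence read after 30 min at room temperature.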

[7] = qHTS assay to identify small molecule agonists of H2AX (AID 1224845; active = well fitted activation curve with a large enough effect in the signal ratio in the repeat runs, not every such curve was filed as active; inconclusive = weak or mixed curves; the % refers to the signal ratio; also: potency is read from the fitted curve at half-maximal effect); conditions: CHO-K1 phospho-H2AX Ser139 HTRF, 3 h; activation (H2AX phosphorylation): at 154 µM (top of the series) unless noted
Summary of the method: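 Wild-type CHO-K1 cells, plated overnight, exposed 3hr at 37C to 15 concentrations (0.76% DMSO final). Lysed, then HTRF anti-pH2AX (S139) cryptate and anti-H2AX-d2 antibodies, 24 hr room temperature; 665/620 nm emission read.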

[8] = qHTS assay to identify small molecule antagonists of the estrogen related receptor signaling pathway with the pleiotropic PPARgamma coactivator (PGC) from Tox21 10K library - cell viability counter screen (AID 1224840; active = well fitted cell-killing curve with a large enough effect in the repeat runs, not every such curve was filed as active; inconclusive = weak or mixed curves, or effect the other way; inactive = no such curve, though single readings can be large or run the other way; also: potency is read from the fitted curve at half-maximal effect; nearly all actives have a fitted effect of over 40% in size)
Summary of the method: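 Viability counter screen, PGC/ERR cells: 17.5 h compound exposure at 37 C, CellTiter-Fluor fluorescence endpoint.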

[9] = qHTS assay to identify small molecule antagonists of the estrogen related receptor signaling pathway with the pleiotropic PPARgamma coactivator (PGC) from Tox21 10K library (AID 1224841; call rule not given here; also: potency is read from the fitted curve at half-maximal effect; actives are mostly falling curves and most rising ones were filed inactive; nearly all actives have a fitted effect of over 50% in size)
Summary of the method: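 In the PGC/ERR line, DMSO solutions of test chemicals are pin-delivered to 2,000 cells/well six hours after dispensing. Following eighteen hours' incubation, One-Glo reagent is added and luminescence recorded.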

[10] = qHTS assay to identify small molecule agonists of the estrogen related receptor signaling pathway with the pleiotropic PPARgamma coactivator (PGC) from Tox21 10K library (AID 1224842); also: potency is read from the fitted curve at half-maximal effect; nearly all actives have a fitted effect of over 15% in size
Summary of the method: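 PGC/ERR reporter cell line, 2,000 cells per well, incubated 6 h at 37 C before 23 nL compound in DMSO was added. After 18 h at 37 C, One-Glo luminescence read following 30 min at room temperature.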
Tags tell the direction and shape of the fitted curve or compound fluorescence and quenching.

CCOC(=O)C1=C(C)NC(C)=C(C(=O)OC)C1c1cccc([N+](=O)[O-])c1 (configuration not stated)
Potency [1]: inactive

Oc1ccc2c(c1)-c1ccccc1C2
Potency [1]: inactive

c1cc(N(CC2CO2)CC2CO2)ccc1Cc1ccc(N(CC2CO2)CC2CO2)cc1 (configuration not stated)
Potency [1]: inconclusive: 54.5 µM [cytotoxic, partial curve]
Potency [2]: active: 54.5 µM
Potency [3]: inconclusive: 68.6 µM [inhibitor, single point]
Potency [4]: inactive
activation [5]: inconclusive: -3.07%
Potency [6]: inconclusive: 24.5 µM [rising, partial curve, poor fit]
Potency [7]: inconclusive: 101 µM [fluorescent, partial curve]

ON=C1CCCC1
Potency [1]: inconclusive: 56.4 µM [cytotoxic, partial curve]
Potency [2]: inconclusive: 44.8 µM [cytotoxic, partial curve]
Potency [4]: inconclusive: 56.4 µM [activator, partial curve]
Potency [8]: inconclusive: 22.4 µM [cytotoxic, full curve]
Potency [6]: inconclusive: 50.7 µM [cytotoxic, partial curve, poor fit]
Potency [7]: active: 104 µM

CC(C)C(=O)Nc1ccc([N+](=O)[O-])c(C(F)(F)F)c1
Potency [1]: inconclusive: 62.9 µM [cytotoxic] and inconclusive: 68.6 µM [cytotoxic, partial curve, poor fit]
Potency [2]: inconclusive: 70.5 µM [cytotoxic]
Potency [4]: inconclusive: 61.1 µM [activator, partial curve]
Potency [8]: inconclusive: 54.5 µM [cytotoxic, partial curve, poor fit]
activation [5]: inconclusive: -28%
Potency [6]: inconclusive: 0.213 µM [cytotoxic, single point]

Cc1cc(-c2ccc(N=Nc3cc(S(=O)(=O)O)c4ccccc4c3N)c(C)c2)ccc1N=Nc1cc(S(=O)(=O)O)c2ccccc2c1N
Potency [1]: inconclusive: 15.4 µM [cytotoxic, full curve]
Potency [2]: inconclusive: 15.4 µM [cytotoxic, full curve]
Potency [3]: inconclusive: 10.9 µM [inhibitor, full curve, poor fit]
Potency [4]: inactive
Potency [9]: active: 12.3 µM
Potency [5]: inactive
Potency [6]: inactive

CN(C)CC/C=C1\c2ccccc2Sc2ccc(Cl)cc21
Potency [1]: inconclusive: 26.6 µM [cytotoxic]
Potency [2]: inconclusive: 29.8 µM [cytotoxic]
Potency [3]: inconclusive: 33.5 µM [inhibitor, single point]
Potency [8]: inconclusive: 33.5 µM [cytotoxic, single point]
Potency [10]: inconclusive: 33.5 µM [activator, single point]
Potency [6]: inconclusive: 19 µM [cytotoxic, partial curve, poor fit]
Potency [7]: inconclusive: 61.9 µM [activator, single point]

COCC(C)O (configuration not stated)
Potency [1]: inactive
Potency [2]: inactive

C=CCn1cc[n+](C)c1
Potency [1]: inactive

CN1CCC(Nc2ncc3ncnc(Nc4ccc(F)c(Cl)c4)c3n2)CC1
Potency [1]: inconclusive: 33.5 µM [cytotoxic, single point]
Potency [2]: inconclusive: 29.8 µM [cytotoxic]
Potency [3]: inconclusive: 33.5 µM [inhibitor, single point]
Potency [8]: inconclusive: 33.5 µM [cytotoxic, single point]
Potency [10]: inconclusive: 53.1 µM [activator, single point]
Potency [6]: inconclusive: 21.3 µM [cytotoxic, partial curve]
Potency [7]: inconclusive: 61.9 µM [activator, single point]

O=[N+]([O-])c1cccc(S(=O)(=O)O)c1
Potency [1]: inconclusive: 69.6 µM [cytotoxic, single point]
Potency [2]: inconclusive: 62.1 µM [cytotoxic, partial curve, poor fit]
Potency [3]: inconclusive: 78.1 µM [inhibitor, single point]
Potency [8]: inconclusive: 55.3 µM [cytotoxic, partial curve]

Cc1ccc(S(=O)(=O)NC2CCCCC2)cc1
Potency [1]: inactive

CO[C@H]1C=CO[C@@]2(C)Oc3c(C)c(O)c4c(O)c(c5c(c4c3C2=O)=NC2(CCN(CC(C)C)CC2)N=5)NC(=O)/C(C)=C\C=C/[C@H](C)[C@H](O)[C@@H](C)[C@@H](O)[C@@H](C)[C@H](OC(C)=O)[C@@H]1C
Potency [1]: active: 53.3 µM
Potency [2]: active: 47.5 µM
Potency [4]: inactive
Potency [8]: active: 53.3 µM
activation [5]: inconclusive: -33.6%
Potency [6]: inconclusive: 47.9 µM [cytotoxic, single point]
Potency [7]: inconclusive: 49.4 µM
